From patent US20060211075 come the findings set out here.

For this series, the target named is T1, peptide 23, Dap-substituted pyrene derivative at Y+3 (not fully specified).
T1 chain: EEEIYGEXEA

B1: Abl (protein)
chain: MLEICLKLVGCKSKKGLSSSSSCYLEEALQRPVASDFEPQGLSEAARWNSKENLLAGPSE[about 60 residues not written out]LEKHSWYHGPVSRNAAEYLLSSGINGSFLVRESESSPGQRSISLRYEGRVYHYRINTASDGKLYVSSESRFNTLAELVHHHSTVADGLITTLHYPAPKRNKPTVYGVSPNYDKWEMERTDITMKHKLGGGQYGEVYEGVWKKYSLTVAVKTLKEDTMEVEEFLKEAAVMKEIKHPNLVQLLGVCTREPPFYIITEFMTYGNLLDYLRECNRQEVNAVVLLYMATQISSAMEYLEKKNFIHRDLAARNCLVGENHLVKVADFGLSRLMTGDTYTAHAGAKFPIKWTAPESLAYNKFSIKSDVWAFGVLLWEIATYGMSPYPGIDLSQVYELLEKDYRMERPEGCPEKVYELMRACWQWNPSDRPSFAEIHQAFETMFQESSISDEVEKELGKQGVRGAVSTLLQAPELPTKTRTSRRAAEHRDTTDVPEMPHSKGQGESDPLDHEPAVSPLLPRKERGPPEGGLNEDERLLPKDKKTNLFSALIKKKKKTAPTPPKRSSSFREMDGQPERRGAGEEEGRDISNGALAFTPLDTADPAKSPKPSNGAGVPNGALRESGGSGFRSPHLWKKSSTLTSSRLATGEEEGGGSSSKRFLRSCSASCVPHGAKDTEWRSVTLPRDLQSTGRQFDSSTFGGHKSEKPALPRKRAGENRSDQVTRGTVTPPPRLVKKNEEAADEVFKDIMESSPGSSPPNLTPKPLRRQVTVAPASGLPHKEEAGKGSALGTPAAAEPVTPTSKAGSGAPGGTSKGPAEESRVRRHKHSSESPGRDKGKLSRLKPAPPPPPAASAGKAGGKPSQSPSQEAAGEAVLGAKTKATSLVDAVNSDAAKPSQPGEGLKKPVLPATPKPQSAKPSGTPISPAPVPSTLPSASSALAGDQPSSTAFIPLISTRVSLRKTRQPPERIASGAITKGVVLDSTEALCLAISRNSEQMASHSAVLEAGKNLYTFCVSYVDSIQQMRNKFAFREAINKLENNLRELQICPATAGSGPAATQDFSKLLSSVKEISDIVQR
For B1, the Km is 90 µM and the Vmax is 0.4 µmol/min/mg.

One may read the Km as the substrate concentration at which the rate is half of its maximum. In general, Vmax refers to the rate approached at saturating substrate.
